The supplement of paper PMC8007513
Where a name gives a salt, the structure may show the parent alone. ± gives the standard error. Among all 1,300 compounds or so, about 75 (6%) showed an effect of 50% or more. The list shows a part of the results.

Test system: Trichoderma virens ATCC 9645
Test: growth yield (OD600) relative to untreated control; higher = less growth inhibition
Conditions: compound concentration: 100 uM
How it was run: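 Trichoderma virens ATCC 9645 spores, from potato dextrose agar plates grown for 7 days, were brought to 15,000 spores ml^−1 in potato dextrose broth and dispensed as 100 μl aliquots into 96-well plates. Each aliquot received library compounds at 100 μM final, with or without a biocide at 200 ng ml^−1, before growth at 30 °C and OD600 readings on a BioTek EL800 at 40 h and 72 h. Growth is expressed relative to the control containing neither agent and represents means of duplicate screens.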

Row | Compound | growth yield (40 h) [%] | growth yield (72 h) [%]
1 | CN(C)[C@@H]1C(O)=C(C(N)=O)C(=O)[C@@]2(O)C(O)=C3C(=O)c4c(O)cccc4[C@@](C)(O)[C@H]3C[C@@H]12 [Tetracycline hydrochloride] | 95.9 | 76.2 ± 15
2 | Cc1ccc(N(CC2=NCCN2)c2cccc(O)c2)cc1 [Phentolamine hydrochloride] | 99.9 ± 2.4 | 100 ± 2
3 | CCc1ccc(CCOc2ccc(CC3SC(=O)NC3=O)cc2)nc1 (configuration not stated) [Pioglitazone] | 96.4 ± 1.1 | 98.165 ± 1.4e-14
4 | Cc1c(Cl)cccc1Nc1ccccc1C(=O)O [Tolfenamic acid] | 88.79 ± 0.16 | 94.49 ± 0.32
5 | CCCSc1ccc2[nH]c(NC(=O)OC)nc2c1 [Albendazole] | 73.2 ± 3.6 | 84.3 ± 5.5
6 | CO[C@H]1/C=C/O[C@@]2(C)Oc3c(C)c(O)c4c(O)c(c(/C=N/N5CCN(C)CC5)c(O)c4c3C2=O)NC(=O)/C(C)=C\C=C\[C@H](C)[C@H](O)[C@@H](C)[C@@H](O)[C@@H](C)[C@H](OC(C)=O)[C@@H]1C [Rifampicin] | 85.8 ± 7.3 | 90.1 ± 3
7 | CC[C@H]1OC(=O)[C@H](C)[C@@H](O[C@H]2C[C@@](C)(OC)[C@@H](O)[C@H](C)O2)[C@H](C)[C@@H](O[C@@H]2O[C@H](C)C[C@H](N(C)C)[C@H]2O)[C@](C)(O)C[C@@H](C)C(=O)[C@H](C)[C@@H](O)[C@]1(C)O [Erythromycin] | 60 ± 2.9 | 58.1 ± 1.9
8 | c1ccc(CC2=NCCN2)cc1 [Tolazoline hydrochloride] | 102 ± 8.7 | 100 ± 5.3
9 | CC(C)(Oc1ccc(CCNC(=O)c2ccc(Cl)cc2)cc1)C(=O)O [Bezafibrate] | 101 ± 3.6 | 104 ± 3.2
10 | OCCN1CCN(CCCN2c3ccccc3Sc3ccc(C(F)(F)F)cc32)CC1 [Fluphenazine dihydrochloride] | 44 ± 6.2 | 90.3 ± 8.9
11 | Clc1ccc2c(c1)C(N1CCNCC1)=Nc1ccccc1O2 [Amoxapine] | 98 ± 3 | 102.05 ± 0.1
12 | O=C1c2ccccc2C(=O)C1c1ccccc1 [Phenindione] | 97.5 ± 4.5 | 101 ± 3.1
13 | O=C(O)CCc1nc(-c2ccccc2)c(-c2ccccc2)o1 [Oxaprozin] | 92 ± 10 | 90.8 ± 7.8
14 | COC(=O)C1=C(C)NC(C)=C(C(=O)OC)C1c1ccccc1[N+](=O)[O-] [Nifedipine] | 44.2 ± 1.3 | 53.1 ± 1.1
15 | Clc1ccccc1CN1CCc2sccc2C1 [Ticlopidine hydrochloride] | 101 ± 5.1 | 102 ± 3
16 | CCN(CC)CCOC(=O)C1(c2ccc([N+](=O)[O-])cc2)CCCC1 [Nitrocaramiphen hydrochloride] | 101 | 103.3 ± 0.52

Row | Compound | growth yield (40 h) [%] | growth yield (72 h) [%]
17 | Nc1ccc(O)c(C(=O)O)c1 [Mesalamine] | 101 ± 0.32 | 98.58 ± 0.63
18 | Cc1cc(C(C)(C)CC(C)(C)C)ccc1OCCOCC[N+](C)(C)Cc1ccccc1 [Methyl benzethonium chloride] | 1.43 ± 0.79 | 0.944 ± 0.52
19 | Cc1cc(NC(=O)C2=C(O)c3ccccc3S(=O)(=O)N2C)no1 [Isoxicam] | 92 ± 6.8 | 92.6 ± 7.2
20 | CO[C@@]1(NC(=O)C2SC(=C(C(N)=O)C(=O)O)S2)C(=O)N2C(C(=O)O)=C(CSc3nnnn3C)CS[C@@H]21 (some centres not stated) [Cefotetan] | 97.4 ± 3.6 | 99 ± 3.1
21 | CN(C)CCCN1c2ccccc2CCc2ccc(Cl)cc21 [Clomipramine hydrochloride] | 94.5 ± 4 | 103 ± 3.9
22 | C#C[C@]1(OC(C)=O)CC[C@H]2[C@@H]3CCC4=C[C@@H](OC(C)=O)CC[C@@H]4[C@H]3CC[C@@]21C [Ethynodiol diacetate] | 84.8 | 89 ± 0.94
23 | Nc1ccc(S(=O)(=O)Nc2ncccn2)cc1 [Sulfadiazine] | 97.5 ± 4.5 | 97.6 ± 6.2
24 | CO[C@@]1(NC(=O)C(C(=O)O)c2ccc(O)cc2)C(=O)N2C(C(=O)O)=C(CSc3nnnn3C)CO[C@@H]21 (some centres not stated) [Moxalactam disodium salt] | 96.1 ± 0.16 | 92.71 ± 0.63
25 | C#C[C@]1(O)CC[C@H]2[C@@H]3CCC4=CC(=O)CC[C@@H]4[C@H]3CC[C@@]21C [Norethindrone] | 85.5 ± 2.9 | 85.9 ± 3.9
26 | CC(=O)O[C@]1(C(C)=O)CC[C@H]2[C@@H]3C=C(C)C4=CC(=O)CC[C@@H]4[C@H]3CC[C@@]21C [Nomegestrol acetate] | 96.7 ± 5.2 | 95.4 ± 5.9
27 | NS(=O)(=O)c1cc2c(cc1Cl)N=C(CSCc1ccccc1)NS2(=O)=O [Benzthiazide] | 96.3 ± 2.9 | 96.9 ± 4.8
28 | O=C1C(CC[S+]([O-])c2ccccc2)C(=O)N(c2ccccc2)N1c1ccccc1 (configuration not stated) [Sulfinpyrazone] | 102 ± 1.1 | 106 ± 2.1
29 | CC(=O)Oc1cc(C(F)(F)F)ccc1C(=O)O [Triflusal] | 94.5 ± 2.4 | 91.77 ± 0.32
30 | O=c1[nH]cc(F)c(=O)[nH]1 [5-fluorouracil] | 54.3 ± 5.7 | 61.5 ± 4.6
31 | C[C@]12C=CC(=O)C=C1CC[C@@H]1[C@@H]2[C@@H](O)C[C@@]2(C)[C@H]1CC[C@]2(O)C(=O)CO [Prednisolone] | 97.21 ± 0.95 | 102.9 ± 0.52
